The chains are these.
B1: LINE1-full (parent)
chain: UACGUAGGUGGUUUUCCCCUGAUAGUGCUAAGGGGGCCUGGAAGUUUGGACUGGGCAGAGCUCAACACAGCGUGGCAAAGUGGCUGUGGCUAGACUGCCUCUCUGGAUUCCUCGUCACUCAGCAGGGCAUCUCUGAGAGAAAUGCC

The source gives no read counts; variants with many changes may rest on few reads.

Variants of B1 are the subject of the data set. The data set is described as follows: self-cleavage, relative activity (ratio to wild type); higher = more cleavage; in vitro, sequencing; the parent is a self-cleaving ribozyme.
As to UACGUAGGUGGUCUUCCCCUGAUAGUGCUAAGGGGGCCUGGAAGUUUGGACUGGGCAGAGCUCAACACAGCGCGGCAAAGUAGCUGUGGCUAGACUGCCUCUCUGGAUUCCUCGUCACUCAGCAGGGCAUCUCUGAGAGAAAUGCC [U13C U73C G82A], the self-cleavage was determined as 2.16. The result for UACGUAGGUGGUCUUCCCCUGAUAGUGCUAAGGGGGCCUGGAAGUUUGGACUGGGCAGAGCCCAACACCGCGUGGCAAAGUGGCUGUGGCUAGACUGCCUCUCUGGAUUCCUCGUCACUCAGCAGGGCAUCUCUGGGAGAGAUGCC [U13C U62C A69C A136G A141G] reads 0; that for UACGUAGGUGGUCUUCCCCUGAUAGUGCUAAGGGGGCCUGGAAGUUUGGACUGGGCAGAGCCCAACACAGCGUAGCAAAGUGGCUGUGGCUAGACUGCCUCUCUGGAUCCCUCGUCACUCAGCAGGGCAUCUCUGAGAGAAAUGCC [U13C U62C G74A U109C], 0.04. As to UACGUAGGUGGUCUUCCCCUGAUAGUGCUAAGGGGGCCUGGAAGUUUGGACUGGGCAGAGCUCAACACAGCGUGGCAAAGCGGCUGUGGCUAGACUGCCUCUCUGGAUUCCUCGUCACUCAGCAGGGCAGCUCUGAGAGAAAUGCC [U13C U81C U130G], the self-cleavage came out at 1.23. As for UACGUAGGUGGUCUUCCCCUGAUAGUGCUAAGGGGGCCUGGAAGUUUGGACUGGGCAGAGCCCAACACAGCGUGGCAAUGUGGCUGUGGCUAGACUGCCUCUCUGGAUUCCUCGUCACUCAGCAGGGCAUCUCUGAGAGAAAUGCC [U13C U62C A79U], the self-cleavage amounted to 0.09. For the variant UACGUAGGUGGUCUUCCCCUGAUAGUGCUAAGGGGGCCUGGAAGUUUGGACUGGGCAGAGCUCAACACAGCGUGGCAAAGUGGCCGUGGCUAGACUGCCUCUCUGGAUUCCUCGCCACUCAGCAGGGCAUCCCUGAGAGAAAUGCC [U13C U85C U115C U132C], the self-cleavage was found to be 1.25. For UACGUAGGUGGUCUUCCCCUGAUAGUGCUAAGGGGGCCUGGAAGUUUGGACUGGGCAGAGCUCAACACAGCGCGGCAAGGUGGCUGUGGCUAGACUGCCUCUCUGGAUUCCUCGUCACUCAGCAGGGCAUCUCUGAGAGAAAUGCC [U13C U73C A79G], the self-cleavage was found to be 1.34.

On to UACGUAGGUGGUCUUCCCCUGAUAGUGCUAAGGGGGCCUGGAAGUUUGGACCGGGCAGAGCUCAACACAGCGUGGCAAAGUGGCCGUGGCUAGACUGCCUCUCUGGAUUCCUCGUCACUCAGCAGGGCAUCUCUGAGAGAAAUGCC [U13C U52C U85C], for which the self-cleavage was determined as 0.5.

On to UACGUAGGUGGUCUUCCCCUGAUAGUGCUAAGGGGGCCUGGAAGUUUGGACUGGGCAGAGCUCAACACAGCGUGGCAAAGUGGCUGUGGCUAGACUGCCACUCUGGAUUCCUCGUCACUCAACAGGGCAUCUCUGAGAGAAAUGCC [U13C U100A G122A], for which the self-cleavage was found to be 0.73. Take UACGUAGGUGGUCUUCCCCUGAUAGUGCUAAGGGGGCCUGGAAGUUUGGACUGGGCAGAGCCCAACACAGCGUGGCAAAGUGGCUGUGGCUAGACUGCCUCCCUGGAUUCCUCGUCACUCAGCAGGGCUUCUCUGAGAGAAAUGCC [U13C U62C U102C A129U]: the self-cleavage came to 0. Turning to UACGUAGGUGGUCUUCCCCUGAUAGUGCUAAGGGGGCCUGGAAGUUUGGACUGGGCAGAGCUCAACACAGCGUGGCAAAGUGGCUGUGGCUAGACAGCCCCUCUGGAUUCCUCGUCACUCAGCAGGGCAUCUCUGAGAGAAAUGCC [U13C U96A U100C], the self-cleavage worked out at 0.11. The result for UACGUAGGUGGUCUUCCCCUGAUAGUGCUAAGGGGGCCUGGAAGUUUGGACUGGGCAGAGCUCAACACAGCGUGGCAAAGUGGCUGAGGCUAGACUGCCUCUCUGGAUUCCUCGUCACUCAGCAGGGCAUCUCUGAGAGGAAUGCC [U13C U87A A140G] reads 0.23. The result for UACGUAGGUGGUCUUCCCCUGAUAGUGCUAAGGGGGCCUGGAAGUUUGGACUGGGCAGAGCUCAACACAGCGUGGCAAAGUGGCUGUGGCUAGACUGCCUCUCAGGAUUCCUCGUCACUCAGCAGGGCAUCUCUGAGGGAAAUGCC [U13C U104A A138G] reads 1.2; that for UACGUAGGUGGUCUUCCCCUGAUAGUGCUAAGGGGGCCUGGAAGUUUGGACUGGGCAGAGCACAACACAGCGUGGCAAAGUGGCUGUGGCUAGACUGCCUCUCUGGAUUCCUCGUCACUCCGCAGGGCAUCUCUGAGAGAAAUGCC [U13C U62A A121C], 0.

In the case of UACGUAGGUGGUCUUCCCCUGAUAGUGCUAAGGGGGCCUGGAAGUUUGGACUGGGCAGAGCUCAACACAGCGUGGCAAAGCGGCUGUGGCUAGACUGCCUCUCUGGAUUCCUCGUCACUCAGCAGGGCAUCUCUGGGAGAAAUGCC [U13C U81C A136G], the self-cleavage worked out at 1.72. The result for UACGUAGGUGGUCUUCCCCUGAUAGUGCUAAGGGGGCCUGGAAGUUUGGACUGGGCAGAGCUCAACACAGCGUGGCAAAGUGGCUGUGGCUAGACUGCCCCUCUGGAUUCCUCAUCACUCAGCAGGGCAUCUCUGAGAGAAAUGCC [U13C U100C G114A] reads 2; that for UACGUAGGUGGUCUUCCCCUGAUAGUGCUAAGGGGGCCUGGAAGUUUGGACUGGGCAGAGCUCAACACAGCGGGGCAAAGUGGCUGUGGCUAGACAGCCCCUCUGGAUUCCUCGUCACUCAGCAGGGCAUCUCUGAGAGAGAUGCC [U13C U73G U96A U100C A141G], 0.06; that for UACGUAGGUGGUCUUCCCCUGAUAGUGCUAAGGGGGCCUGGAAGUUUGGACUGGGCAGAGCUCAACACAGCGAGGCAAAGUGGCUGUGGCCAGACUGCCUCUCUGGAUUCCUCGACACUCUGCAGGGCAUCUCUGAGAGAAAUGCC [U13C U73A U91C U115A A121U], 0.5. With UACGUAGGUGGUCUUCCCCUGAUAGUGCUAAGGGGGCCUGGAAGUUUGGACUGGGCAGAGCCCAACGCAGCGUGGCAAAGUGGCUGUGGCUAGACUGCCUCUCUGGAUUCCUCGUCACUCAGCAGGGCAUCUCUGAGAGAAAUGCC [U13C U62C A67G], the self-cleavage was determined as 0.22.

In the case of UACGUAGGUGGUCUUCCCCUGAUAGUGCUAAGGGGGCCUGGAAGUUUGGACUGGGCAGAGCUCAACACAGCGUGGCAAAGUGGCUGCGGCUAGACUGCCUCUCUGGAUUCCUCGUCACUCAGCAGGGCAUCUCUGUGAGAAAUGCC [U13C U87C A136U], the self-cleavage worked out at 0.53. As for UACGUAGGUGGUCUUCCCCUGAUAGUGCUAAGGGGGCCUGGAAGUUUGGACUGGGCAGAGCUCAACACAGCGCGGCAAAGUGGCUGUGGCUAGACUGCCUCUCUGGAUUCCUCGUCACUCAGCAGGGCAUCUCAGAGAGAGAUGCC [U13C U73C U134A A141G], the self-cleavage was determined as 1.76.

On to UACGUAGGUGGUCUUCCCCUGAUAGUGCUAAGGGGGCCUGGAAGUUUGGACUGGGCAGAGCUCAACACAGCGUGGCAAAGUGGCAGUGGCUAGACUGCCUCUCUGGAUUCCUCGUCACUCAGCAGGGCAUCUCUGAGAGAAAUGUC [U13C U85A C145U], for which the self-cleavage was found to be 0.13. In the case of UACGUAGGUGGUCUUCCCCUGAUAGUGCUAAGGGGGCCUGGAAGUUUGGACUGGGCAGAGCUCAACACAGCGUGGCAAAGUGGCUGUGGCUAGACUGCCCCUCUGGAUUCCUCGUCACACAGCAGGGCAUCUCUGAGAGAAACGCC [U13C U100C U119A U143C], the self-cleavage worked out at 1.88. The result for UACGUAGGUGGUCUUCCCCUGAUAGUGCUAAGGGGGCCUGGAAGUUUGGACUGGGCAGAGCUCAACACAGCGAGGCAAAGUGGCUGUGUCUAGAUUGCCUCUCUGGACUCCUCGUCACUCAGCAGGGCAUCUCUGAGAGAAAUGCC [U13C U73A G89U C95U U108C] reads 0.03; that for UACGUAGGUGGUCUUCCCCUGAUAGUGCUAAGGGGGCCUGGAAGUUUGGACUGGGCAGAGCUCAACACAGCGUGGCAAAGUGGCUGGGGCUAGACUACCUCUCUGGAUUCCUCGUCACUCGGCAGGGCAUCUCUGAGUGAAAUGCC [U13C U87G G97A A121G A138U], 0.13; that for UACGUAGGUGGUCUUCCCCUGAUAGUGCUAAGGGGGCCUGGAAGUUUGGACCGGGCAGAGCUCAACACAGCGUGGCAAAGUGGCUGUGGCCAGACUGCCUCUCUGGAUUCCUCGUCACUCAGCAGGGCAUCUCUGAGAGAAAUGCC [U13C U52C U91C], 0.63. On to UACGUAGGUGGUCUUCCCCUGAUAGUGCUAAGGGGGCCUGGAAGUUUGGACUGGGCAGAGCUCAACACAGCGUGGCAAAGUGGCUGAGGCUAGACUGCCUCUCCGGAUUCCUCGUCACUCAGCAGGGCAUCUCUGAGAGAAAUGCC [U13C U87A U104C], for which the self-cleavage worked out at 0.18. Turning to UACGUAGGUGGUCUUCCCCUGAUAGUGCUAAGGGGGCCUGGAAGUUUGGACUGGGCAGAGCUCAACACAGCGUGGCAAAGUGGCUGUGGCUAGACUGCCCCUCUGGAUUCCUCGUCACUCAGCAGGGCAUCUCUGGGAGAAAUGCC [U13C U100C A136G], the self-cleavage came out at 0.92. The figure for UACGUAGGUGGUCUUCCCCUGAUAGUGCUAAGGGGGCCUGGAAGUUUGGACUGGGCAGAGCUCAACACAGCGUGGCAAAGUGGCUGUGGCUAGACUGCCUCCCUGGAUUCCUCGACACCCAGCAGGGCAUCUCUGAGAGAAAUGCC [U13C U102C U115A U119C] is 0.77; for UACGUAGGUGGUCUUCCCCUGAUAGUGCUAAGGGGGCCUGGAAGUUUGGACUGGGCAGAGCCCAACACAGCGUGGCGAAGUGGCUGUGGCUAGACUGCCUCUCUGGGUUCCUCCUCACUCAGCAGGGCAUCUCUGAGAGAAAUGCC [U13C U62C A77G A107G G114C] it is 0; for UACGUAGGUGGUCUUCCCCUGAUAGUGCUAAGGGGGCCUGGAAGUUUGGACUGGGCAGAGCUCAACACAGCGUGGCAAAGUGGCUGUGGCUAGACUGCCUCUCAGGAUUCCUCGUCACCCAGCAGGGCAUCUCUGAGAGAAAUGCC [U13C U104A U119C] it is 1.89.

Consider UACGUAGGUGGUCUUCCCCUGAUAGUGCUAAGGGGGCCUGGAAGUUUGGACUGGGCAGAGCCCAACACAGCGUGGCAAAGUGGCUGUGGCUAGACUGCCUCUCUGGAUUCCUCGUCACUCUGCAGGGCAUCUCUGAGUGAAAUGCC [U13C U62C A121U A138U], for which the self-cleavage is 0.1. UACGUAGGUGGUCUUCCCCUGAUAGUGCUAAGGGGGCCUGGAAGUUUGGACUGGGCAGAGCUCAACACAGCGUGGCAAAGUGGCAGUGGCUAGACUGCCUCUUUGGAUUCCUCGUCACUCAGCAGGGCAUCUCUGAGAGAAAUGCC [U13C U85A C103U]: the self-cleavage worked out at 0.15.

As to UACGUAGGUGGUCUUCCCCUGAUAGUGCUAAGGGGGCCUGGAAGUUUGGACUGGGCAGAGCUCAACACAGCGUGGCAAAGUGGCCGUGGCUAGACUGCCCCUCUGGAUUCCUCGUCACUCAGCAGGGCAUCUCUGAGAGGAAUGCC [U13C U85C U100C A140G], the self-cleavage was 0.

On to UACGUAGGUGGUCUUCCCCUGAUAGUGCUAAGGGGGCCUGGAAGUUUGGACUGGGCAGAGCUCAACACAGCGCGGCUAAGUGGCUGUGGCUAGACUGCCUCUCUGGAUUCCUCGUCACCCAGCAGGGCAUCUCUGAGAGAAAUGCC [U13C U73C A77U U119C], for which the self-cleavage amounted to 1.95. The result for UACGUAGGUGGUCUUCCCCUGAUAGUGCUAAGGGGGCCUGGAAGUUUGGACUGGGCAGAGCCCAACACAGCGUGGCAAAGUGGCUGUGGCUAGGCUGCCUCUCUGGAUUCCUCGUCACUCAGCAGGGCAUCUCUGAGAGAAAUGCC [U13C U62C A94G] reads 0.23. Turning to UACGUAGGUGGUCUUCCCCUGAUAGUGCUAAGGGGGCCUGGAAGUUUGGACUGGGCAGAGCUCAACACAGCGUGGCAAAGUGGCUGAGGCUAGACUGCCUCUCUGGAUUCCUCGUCACUCAGCAGGGCAUCUCUGUGAGAAAUGCC [U13C U87A A136U], the self-cleavage came out at 0.3. The figure for UACGUAGGUGGUCUUCCCCUGAUAGUGCUAAGGGGGCCUGGAAGUUUGGACUGGGCAGAGCUCAACACAGCGUGGCAAAGUGGCUGUGGCUAGACCGCCUCUCUGGAUUCCUCGUCACUCAUCAGGGCAUCUCUGGGAGAAACGCC [U13C U96C G122U A136G U143C] is 0.3; for UACGUAGGUGGUCUUCCCCUGAUAGUGCUAAGGGGGCCUGGAAGUUUGGACUGGGCAGAGCUCAACACAGCGUGGCAAAGUGGCUGUGGCUAGACCGCCUCUCUGGAUUCCUCGUCACCCAGCAGGGCAUCUCUGAGAGAAAUGCC [U13C U96C U119C] it is 0.08.

The values are drawn from the RNAGym collection of RNA variant scans (doi:10.7554/elife.90254).
